# Some of the results follow.
# T1: UNK ZnF1-6 (called full-length) (human, UniProt Q9C0B0 30-357)
# T1 sequence: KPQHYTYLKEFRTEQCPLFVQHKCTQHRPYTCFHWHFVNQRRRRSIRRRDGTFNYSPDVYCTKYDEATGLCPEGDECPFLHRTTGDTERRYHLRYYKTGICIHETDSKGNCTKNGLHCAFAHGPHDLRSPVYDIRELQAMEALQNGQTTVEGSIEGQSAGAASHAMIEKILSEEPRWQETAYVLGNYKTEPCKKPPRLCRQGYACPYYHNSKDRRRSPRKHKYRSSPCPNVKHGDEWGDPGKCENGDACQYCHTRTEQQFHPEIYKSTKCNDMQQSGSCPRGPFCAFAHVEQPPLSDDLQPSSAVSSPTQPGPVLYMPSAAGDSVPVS
# B1: chrX:101163201:101163302:+|3pUTR|ENSG00000102384|unk|FALSE|unique (ssRNA)
# RNA: GGGAGUUCUACAGUCCGACGAUCUCAUCAUCAGGCUCUGCGUUCUACCAAAUUGUAUGUAAAAAGACACAUCUGUUUUGUGGUAGGAUUUUUUCACAUUUUUGGGUACUAUGAGCUGCAUUGAUGGAAGACAGCAGGCAAUAUCAACAGAGGAUUGAGCAUCA
# B2: chr10:127452233:127452334:+|3pUTR|ENSG00000150760|msi1|total|mutant (ssRNA)
# RNA: GGGAGUUCUACAGUCCGACGAUCGUAUAUAUGAUGGUUCUCCGAACUUGUUUUAAUUUUUGUGGUCCUUCCGUUUAUUAUAACCGGCGUCCACCAAUGAUUAUCCAUAUGUGUUCUUAAUUUUUAACUGCUGGAAGUGUUAAACAACAGAGGAUUGAGCAUCA
# B3: chr2:61188134:61188237:-|CDS|ENSG00000115464|unk|FALSE|unique (ssRNA)
# RNA: GGGAGUUCUACAGUCCGACGAUCAUCUCUCAGUUGUGGCCAUUCCAGAGGACUCUUUAGUCAUAUGCAGCAACAUGACAUUUUAGAUACCCUGUGUAGGACCAUUGAAUCUACAAUCCAUGUCGUCACAAGGAUAUCUGGCAACAACAGAGGAUUGAGCAUCA
# B4: chr1:183143318:183143419:+|3pUTR|ENSG00000135862|msi1|total|mutant (ssRNA)
# RNA: GGGAGUUCUACAGUCCGACGAUCACAUCCUGUGCCAAAGGUAUUGGUCAUUCCGAAUGUCGGCCGCCAUCCAUCAGUGCUUUCCGUUAUUAUGAGUGCCGGACACUGAGCCAUCCGUGGGUCAGGAUGCAAUUAUUUAUAAAACAACAGAGGAUUGAGCAUCA
# B5: ENSG00000141012:stop:overlap|stop_codon|ENSG00000141012|stop_codon|NA|stop_codon (ssRNA)
# RNA: GGGAGUUCUACAGUCCGACGAUCAGUUAGGGAAGUGUCUGACACCUCCAGAAUCCAUUCCCAAGAAGUGCCUCUGGUCCCACUAGCACCUGCGCAGACUCAGGCCAGGCCUAGAAUCUCCGGUUGGCCCUGCAAGUGCCUGGACAACAGAGGAUUGAGCAUCA
# B6: ENSG00000099250:stop:overlap|stop_codon|ENSG00000099250|stop_codon|NA|stop_codon (ssRNA)
# RNA: GGGAGUUCUACAGUCCGACGAUCCAAUUCACGGAGAAAUGUGGUCAUCUGGAAAAGGAGUCUGCUCCCUGGAUGCGAAUCUGUAGCCUGGAUUCUGGAAGGCGAUGCUGAUUUAGGAGGUGGAGUGAAUGGAGAAUUGAAAAGCAACAGAGGAUUGAGCAUCA
# B7: chr6:73594753:73594854:-|3pUTR|ENSG00000119899|unk|FALSE|unique (ssRNA)
# RNA: GGGAGUUCUACAGUCCGACGAUCGGUUCACAUACCUGCCUGCUAGUCGGGCAACAUGAAGUAGGACAGUUCUGUUGAUUUUUUAGGGCCAUACUAAAGGGAAUGAGCUGAAACAGACCUCCUGAUACCUUUGCUUAAUUAAACCAACAGAGGAUUGAGCAUCA
# B8: chr17:81921741:81921842:-|3pUTR|ENSG00000197063|msi1|total|mutant (ssRNA)
# RNA: GGGAGUUCUACAGUCCGACGAUCAAUUAUAUGUUUAAAAGUUAAAGAAAAAAGAGCUGCAGAGUAUUUAUAAAACUGUCUUUCCGAAAAAAAACAAGCAAGAAGACCAUUUGACCAUAUGAAUGGAAAAGGGAAGAAAGUAUACAACAGAGGAUUGAGCAUCA
# B9: chr2:47509289:47520906:-|three_prime_utr|ENSG00000184261|control|control|control (ssRNA)
# RNA: GGGAGUUCUACAGUCCGACGAUCCGGCAACCCCAAAGCAUAUGGUGCAACUUUUCGUGGCUCUGAAUUACCUCCUCAGCAUUUAGAAUCCUGGCCCAGCCUAGCAGCUUCCUUCUGGUCGUCAGAAGUGAUAUAGUCACAGUUCAACAGAGGAUUGAGCAUCA
# B10: chr9:93565116:93565217:+|3pUTR|ENSG00000048828|unk|FALSE|unique (ssRNA)
# RNA: GGGAGUUCUACAGUCCGACGAUCAUAUACAAUACAUCAUACAUACUUUACAAGCAAGUUAAAUGGAGAUAAAGUUGAAAUCAUAGAAGAUGCAAAUGACCUUUCAAAAUCAACACAAUGUGUUCUGAAACUUUCGUGACUAAUCAACAGAGGAUUGAGCAUCA
# B11: ENSG00000136451:be:win_2051|3pUTR|ENSG00000136451|bound_else_gene|NA|bound_elsewhere_windowed (ssRNA)
# RNA: GGGAGUUCUACAGUCCGACGAUCUUGUCAUAAUAAAAUGCAUUUCAGAGAAUAUGCAUUUUACCUUUGGGAAUAUGUUAAUUUCAGGCAGCAUUCCCUAUGGGAAAGGUGAUACCAGCUCUGAUAUGCAAAGCAUAUGAUAAUCAACAGAGGAUUGAGCAUCA
# B12: chr7:77627539:77627665:+|CDS|ENSG00000127947|unk|total|mutant (ssRNA)
# RNA: GGGAGUUCUACAGUCCGACGAUCAAUAUUUCAACAGCAAGUGCCACAGUUUCUGCUGCCACCCGUACUGAAAGCAUUUCUACCCGGAAAGUAUUGCCAAUGUCCAUUGCCCGACAUAAUACCGCAGGAACAACACAUUCAGGUCAACAGAGGAUUGAGCAUCA
# B13: ENSG00000064726:stop:overlap|stop_codon|ENSG00000064726|stop_codon|NA|stop_codon (ssRNA)
# RNA: GGGAGUUCUACAGUCCGACGAUCUACCGGCUUUAGUUGUGAUGGGACAGCUAACACAUUCAGGGUCAUGUUCAAGGAACCCAUAGAGAUCCUGCCCAAUGUGUGCUACACAGCAUGUGCAACACUCAAAGGUCCAGAUUCCCACAACAGAGGAUUGAGCAUCA
# B14: chr1:62648186:62648303:-|CDS|ENSG00000116641|unk|total|mutant (ssRNA)
# RNA: GGGAGUUCUACAGUCCGACGAUCGAUGACCUUAAAAGACGUUCAAUGUCAACCGAUGAUACCCCAAGGGGCCGCUGGGCCUGCCGUAUCUUUGACUUGAAAAAUUCACUUCCUGAUGCUUUGCUUCCCAAUUUACUUGAUCGACAACAGAGGAUUGAGCAUCA
# B15: chr19:40393765:40398556:-|three_prime_utr|ENSG00000105227|control|control|control (ssRNA)
# RNA: GGGAGUUCUACAGUCCGACGAUCCCAGCCCAGGGCCCUCACCCACCUCGGAGAGGCGUCCCCACCAUCGGAUCCAGGCUUGCUAGGGGUCCUGAACCAGGCUACUUCGAACCAGGAAAGCCAGAUUCCAGCCUGAGUGCUGGCCAACAGAGGAUUGAGCAUCA
# B16: chr7:77639488:77639589:+|3pUTR|ENSG00000127947|msi1|total|mutant (ssRNA)
# RNA: GGGAGUUCUACAGUCCGACGAUCAGUAUUAUUGCCUUAAUGUCUCUUAACCCUGUUACACGCUGCUUGCCGACAUGUUAAUACCGUAAUACCUUUAUGAUAUAUUGAGUUUAAGGACUACUCUUUUUCUGUUUUAUCAUGUAUCAACAGAGGAUUGAGCAUCA
# B17: chr2:159230815:159230918:+|CDS|ENSG00000115183|unk|total|mutant (ssRNA)
# RNA: GGGAGUUCUACAGUCCGACGAUCAACCUGUUCUGUUUCUACCCUGAGUGCAAGUGUCCACAAUGGGGCACAAGUGAAGGAGCCCGAAGAAAGCAAGUGCCAAAUUCCAGUCCACUCUCAAGAGAACAGGAUAACUAAGACUGUCAACAGAGGAUUGAGCAUCA
# B18: chr17:59607285:59607386:+|3pUTR|ENSG00000108406|unk|FALSE|unique (ssRNA)
# RNA: GGGAGUUCUACAGUCCGACGAUCUAAAUCAAAGCUCAUCAGUUCCCAUAAAUGCAGUUGUCAAAGAAAAGAUUUGGUUGCCAUAGUCAUAAGCAAUGAUACAUGAAACCAAUGAAAGACAGUACAUGUAAUAAUAUUUUCCUCCAACAGAGGAUUGAGCAUCA
# B19: chr12:85803847:85803948:-|3pUTR|ENSG00000198774|unk|total|mutant (ssRNA)
# RNA: GGGAGUUCUACAGUCCGACGAUCCCAAACCCAUGUUCAUUCACUGAGUGAGGUACCGUGUGGGUUACAGAGAAAAUCAGUCACCGUGUUAUUUGUUUAUGUCCUAUCUACAAAAGUUGCAAUGAUGGAAUUUGGAACCCUUCUCAACAGAGGAUUGAGCAUCA
# B20: chr13:20086215:20086316:+|3pUTR|ENSG00000121741|unk|total|mutant (ssRNA)
# RNA: GGGAGUUCUACAGUCCGACGAUCUGGUUUCCGGAUACUUAACAAAUACAUUCAAAUUCUUUUUUUAUUAUUAUUUAUUUGAUCCGGUAUGUUUGUAACUUUUUACAUUACAGAAUAUGAAUGAGAAUGUGCCAUGUAUAAUUUCAACAGAGGAUUGAGCAUCA
# B21: ENSG00000144224:stop:overlap|stop_codon|ENSG00000144224|stop_codon|NA|stop_codon (ssRNA)
# RNA: GGGAGUUCUACAGUCCGACGAUCCUCAAGAUGAUGGUGAAGAUGAAAACAACACUUGGAAUGGAAAUUCCACUCAACAGAUGUAGUGUGACAAGUAUAAUAUGUGCAAUAAUCAUUGUUUCUCUUAUGAUUUAAUUCAACUAACAACAGAGGAUUGAGCAUCA
# B22: chrX:101413019:101413185:+|CDS|ENSG00000126945|unk|total|mutant (ssRNA)
# RNA: GGGAGUUCUACAGUCCGACGAUCGGAGCUCUUCUUAAAUUCUACUGCAGGAACAAGUGGGGGUGCUUACGAUCACAGCUAUGCCGAACUUUUUUUGAAUUCUACAGCAGGGGCAAGUGGUGGCGCUUAUGGCCGCCAAAUGAUCAACAGAGGAUUGAGCAUCA
# Biological target: T1, UNK ZnF1-6 (called full-length)
# Assay: nsRBNS (natural sequence RNA bind-n-seq); RBNS binding buffer (assumed for nsRBNS): 25 mM Tris pH 7.5, 150 mM KCl, 3 mM MgCl2, 0.01% Triton X-100, 500 ug/ml BSA, 20 U/ml SUPERase-In, 4 C; UNK is unkempt and MSI1 is Musashi-1; names of the RNAs are library labels; protein concentration not given here; high values mean tight binding
row,Binder,binding signal [enrichment R]
1,B1,0.362
2,B2,0.787
3,B3,0.555
4,B4,0.549
5,B5,0.473
6,B6,0.76
7,B7,0.656
8,B8,0.865
9,B9,1.1
10,B10,0.404
11,B11,0.233
12,B12,0.539
13,B13,0.591
14,B14,0.524
15,B15,0.554
16,B16,0.412
17,B17,0.586
18,B18,0.395
19,B19,0.308
20,B20,1.28
21,B21,0.922
22,B22,1.01
